The list shows a part of the results. Viral Rep nickase domains cut single-stranded DNA in vitro (3 µM enzyme, 1 h, 37 °C); shown is the middle of each 90-letter strand. Uncut reads are compared with the no-enzyme pool on a log2 scale; uncut sequences lie near 0, cut ones below; no hit call is given. The scaling is to total reads; uncut strands gain when others are lost, and binding without cutting may add a little.
Key:
Assay in all cases: uncleaved DNA left, log2 of reads against the no-enzyme library (log2 ratio); higher = less cleavage (more negative = more Rep cleavage of the k-mer); sequences stand for … in CTCGTCCG…ACCGGAGA
[1] = system: T1, Rep nickase domain of Muscovy duck circovirus
T1 sequence (residues 1-111, tag not shown): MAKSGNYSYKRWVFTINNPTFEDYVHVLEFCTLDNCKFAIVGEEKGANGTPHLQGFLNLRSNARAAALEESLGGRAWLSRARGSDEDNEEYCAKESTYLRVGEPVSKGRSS
Description: (§1)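 A pool of 90-nt single-stranded DNAs with seven random bases just before the constant AC of the nick site (name = the seven bases) was cut by 3 µM recombinant His6-SUMO-tagged Rep nickase domain (300 nM DNA, 50 mM HEPES pH 8.0, 50 mM NaCl, 1 mM MnCl2, 1 h, 37 °C, three replicates). Uncut DNA was amplified and sequenced.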

[2] = system: T2, Rep nickase domain of banana bunchy top virus
T2 sequence (residues 1-94, tag not shown): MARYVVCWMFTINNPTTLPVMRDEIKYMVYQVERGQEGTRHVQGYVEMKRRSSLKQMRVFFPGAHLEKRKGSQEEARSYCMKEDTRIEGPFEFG
Description: as §1

[3] = system: T3, Rep nickase domain of cabbage leaf curl virus
T3 sequence (residues 1-116, tag not shown): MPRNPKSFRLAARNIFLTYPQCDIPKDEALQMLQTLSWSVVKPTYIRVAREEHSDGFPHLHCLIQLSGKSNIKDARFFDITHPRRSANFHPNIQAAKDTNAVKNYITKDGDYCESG
Description: as §1

[4] = system: T4, Rep nickase domain of chickpea chlorotic dwarf virus
T4 sequence (residues 1-124, tag not shown): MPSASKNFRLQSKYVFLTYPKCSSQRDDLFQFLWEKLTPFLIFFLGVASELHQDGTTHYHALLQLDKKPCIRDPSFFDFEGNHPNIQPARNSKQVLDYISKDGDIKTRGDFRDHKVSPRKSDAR
Description: as §1

[5] = system: T5, Rep nickase domain of faba bean necrotic yellows virus
T5 sequence (residues 1-98, tag not shown): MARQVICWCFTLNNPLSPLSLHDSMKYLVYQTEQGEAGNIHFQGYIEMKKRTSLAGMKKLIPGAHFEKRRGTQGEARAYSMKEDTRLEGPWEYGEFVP
Description: as §1

[6] = system: T6, Rep nickase domain of maize striate mosaic virus
T6 sequence (residues 1-117, tag not shown): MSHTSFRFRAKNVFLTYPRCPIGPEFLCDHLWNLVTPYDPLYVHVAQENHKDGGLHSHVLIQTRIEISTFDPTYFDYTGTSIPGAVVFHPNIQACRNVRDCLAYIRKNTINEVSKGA
Description: as §1

[7] = system: T7, Rep nickase domain of porcine circovirus 2
T7 sequence (residues 2-116, tag not shown): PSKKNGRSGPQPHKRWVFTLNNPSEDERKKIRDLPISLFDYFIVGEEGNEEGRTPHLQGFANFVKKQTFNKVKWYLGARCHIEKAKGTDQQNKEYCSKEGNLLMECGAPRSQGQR
Description: as §1

[8] = system: T8, Rep nickase domain of tomato yellow leaf curl virus
T8 sequence (residues 1-136, tag not shown): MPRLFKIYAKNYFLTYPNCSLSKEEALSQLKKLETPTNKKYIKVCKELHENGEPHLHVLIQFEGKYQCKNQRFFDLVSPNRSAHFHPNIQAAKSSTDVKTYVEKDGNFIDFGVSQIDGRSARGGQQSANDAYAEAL
Description: as §1

[9] = system: T9, Rep nickase domain of wheat dwarf virus
T9 sequence (residues 1-137, tag not shown): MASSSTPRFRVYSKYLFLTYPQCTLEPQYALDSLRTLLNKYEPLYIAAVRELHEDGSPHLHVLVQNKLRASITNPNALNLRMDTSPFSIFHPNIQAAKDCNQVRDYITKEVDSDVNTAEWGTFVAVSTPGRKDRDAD
Description: as §1

Row | Sequence | uncleaved DNA left (log2) [1] | uncleaved DNA left (log2) [2] | uncleaved DNA left (log2) [3] | uncleaved DNA left (log2) [4] | uncleaved DNA left (log2) [5] | uncleaved DNA left (log2) [6] | uncleaved DNA left (log2) [7] | uncleaved DNA left (log2) [8] | uncleaved DNA left (log2) [9]
1 | TCGAAGT | -0.172 | -0.122 | 0.071 | -0.237 | 0.0449 | -0.588 | -0.109 | -0.137 | -0.0613
2 | TTCCGCC | -0.0967 | -0.0708 | -0.021 | -0.254 | -0.0943 | -0.438 | 0.000133 | -0.0438 | -0.0789
3 | TGACGGC | -0.0633 | 0.0472 | 0.0592 | 0.161 | -0.0948 | 0.375 | -0.0766 | -0.0665 | -0.0494
4 | TCTATTA | -0.0532 | -0.0306 | 0.0709 | -1.14 | -0.0212 | -0.48 | -0.101 | -0.00097 | 0.0727
5 | GGAACCA | 0.0619 | 0.157 | 0.725 | 1.44 | -0.0149 | 1.98 | 0.11 | 0.163 | 0.2
6 | GGTCTCG | 0.0507 | 0.138 | -0.131 | 0.269 | 0.0874 | 0.308 | 0.0148 | 0.108 | 0.0506
7 | CAACAAA | 0.169 | 0.152 | 0.00984 | -1.33 | 0.262 | -0.448 | 0.0443 | 0.122 | 0.0777
8 | GGTCGGC | -0.0359 | -0.0225 | 0.578 | 1.26 | -0.0966 | 1.68 | 0.162 | 0.00177 | 0.0753
9 | AAGGGGA | 0.0284 | 0.0407 | 0.36 | 0.972 | -0.00268 | 1.11 | 0.0571 | -0.148 | 0.0153
10 | AACATCT | -0.0572 | -0.0414 | -0.654 | -2.54 | 0.13 | -0.905 | -1.81 | 0.038 | 0.0569
11 | AAATGAC | -0.0653 | -0.0411 | -0.334 | -0.0132 | 0.047 | -0.52 | 0.0825 | 0.02 | 0.0184
12 | TTCGTCG | -0.0117 | -0.0661 | -0.854 | -0.0744 | 0.108 | -1.18 | 0.0908 | -0.0888 | -0.0592
13 | CATTGAG | 0.0475 | 0.106 | 0.178 | 1.59 | 0.223 | 1.41 | 0.263 | 0.274 | 0.128
14 | CGGATCT | 0.0335 | 0.114 | 0.341 | 0.266 | 0.089 | 1.1 | 0.0429 | 0.129 | 0.094
15 | GGCGGAG | 0.0863 | 0.109 | 0.3 | 0.775 | 0.0259 | 1.21 | 0.155 | 0.112 | 0.0762
16 | TCGAGTG | 0.205 | 0.0711 | 0.206 | 0.71 | 0.112 | 1.23 | 0.112 | -0.0164 | 0.0974
17 | TCTGGAG | 0.109 | -0.00657 | -0.701 | -0.556 | 0.0285 | -1.11 | 0.157 | 0.0214 | -0.123
18 | GCGGGTG | 0.0564 | 0.0416 | 0.075 | 0.596 | -0.0611 | 1.41 | 0.125 | -0.0315 | 0.0181
19 | GCCTGCC | 0.174 | 0.115 | 0.205 | 0.405 | 0.159 | 0.0587 | 0.226 | 0.0805 | 0.0317
20 | TTGAAGT | 0.113 | -0.0499 | -0.203 | -0.709 | 0.00408 | -0.966 | -0.161 | 0.0293 | -0.086
21 | CCCGTGC | -0.0641 | -0.0661 | -0.489 | -0.564 | 0.0621 | -0.924 | 0.141 | -0.0369 | 0.0628
22 | GGCCGCC | -0.0521 | 0.0328 | 0.333 | 0.778 | 0.0219 | 0.939 | 0.0688 | 0.0427 | -0.0162
23 | AGGACGT | 0.0555 | 0.0282 | 0.786 | 1.9 | -0.0335 | 2.06 | 0.183 | 0.000316 | 0.153
24 | TAAACGC | 0.121 | 0.0428 | -0.568 | -1.81 | 0.0693 | -1.03 | 0.155 | 0.0484 | -0.173
25 | GCTGATC | -0.0146 | -0.0958 | 0.126 | 0.528 | -0.089 | 0.863 | 0.0883 | -0.0527 | -0.0693
26 | TCCATCG | 0.0373 | -0.0243 | -0.816 | -0.189 | -0.0104 | -1.12 | 0.182 | -0.00399 | -0.101
27 | GTCTACG | 0.0107 | 0.0958 | 0.09 | 0.353 | 0.0287 | 0.735 | 0.0898 | 0.0526 | 0.031
28 | CCGGAGT | -0.0337 | -0.126 | -0.0202 | 0.13 | -0.0115 | -0.0894 | -0.193 | -0.222 | -0.158
